{
  "source": "the supplement of paper PMC8728848",
  "binders": {"B1": {"name": "Fm1D (Escherichia coli) (protein)", "chain": "FSCNVDGGSSIGAGTTSVYVNLDPVIQPGQNLVVDLSQHISCWNDYGGWYDTDHINLVQGSAFAGSLQSYKGSLYWNNVTYPFPLTTNTNVLDIGDKTPMPLPLKLYITPVGAAGGVVIKAGEVIARIHMYKIATLGSGNPRNFTWNIISNNSVVMPTHHHHHH"}},
  "test_in_all_cases": "glycan array binding signal (z-score within array); higher = stronger binding",
  "conditions_in_all_cases": "glycan notation: IUPAC condensed, linker removed",
  "key": {"Gal3S(b1-4)Glc6S": {"target": "Gal3S(b1-4)Glc6S", "method_in_brief": "(§1)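 The binding signal is a Z-score computed within each array. Data were drawn from 3228 arrays in the Consortium for Functional Glycomics database, restricted to those with a known protein sequence. Scores were averaged over arrays of the same protein sequence at different concentrations or buffers, and over linkers, and negative values can be taken as non-binding.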"}, "Gal3S(b1-4)GlcNAc": {"target": "Gal3S(b1-4)GlcNAc", "method_in_brief": "as §1"}, "[1]": {"target": "Gal3S(b1-4)[Fuc(a1-3)]Glc6S", "method_in_brief": "as §1"}, "[2]": {"target": "Gal3S(b1-4)[Fuc(a1-3)]GlcNAc", "method_in_brief": "as §1"}, "[3]": {"target": "Gal3S(b1-4)[Fuc(a1-3)]GlcNAc6S", "method_in_brief": "as §1"}, "Gal3S4S(b1-4)GlcNAc": {"target": "Gal3S4S(b1-4)GlcNAc", "method_in_brief": "as §1"}, "Gal3S6S(b1-4)GlcNAc": {"target": "Gal3S6S(b1-4)GlcNAc", "method_in_brief": "as §1"}, "Gal3S6S(b1-4)GlcNAc6S": {"target": "Gal3S6S(b1-4)GlcNAc6S", "method_in_brief": "as §1"}, "Gal4S(b1-4)GlcNAc": {"target": "Gal4S(b1-4)GlcNAc", "method_in_brief": "as §1"}, "Gal4S6S(b1-4)GlcNAc": {"target": "Gal4S6S(b1-4)GlcNAc", "method_in_brief": "as §1"}, "Gal6P(b1-4)GlcNAc": {"target": "Gal6P(b1-4)GlcNAc", "method_in_brief": "as §1"}, "Gal6S(b1-3)GlcNAc": {"target": "Gal6S(b1-3)GlcNAc", "method_in_brief": "as §1"}, "Gal6S(b1-3)GlcNAc6S": {"target": "Gal6S(b1-3)GlcNAc6S", "method_in_brief": "as §1"}, "Gal6S(b1-4)Glc": {"target": "Gal6S(b1-4)Glc", "method_in_brief": "as §1"}, "Gal6S(b1-4)Glc6S": {"target": "Gal6S(b1-4)Glc6S", "method_in_brief": "as §1"}, "Gal6S(b1-4)GlcNAc": {"target": "Gal6S(b1-4)GlcNAc", "method_in_brief": "as §1"}, "Gal6S(b1-4)GlcNAc6S": {"target": "Gal6S(b1-4)GlcNAc6S", "method_in_brief": "as §1"}, "GalNAc(a1-3)Gal": {"target": "GalNAc(a1-3)Gal", "method_in_brief": "as §1"}, "GalNAc(a1-3)GalNAc": {"target": "GalNAc(a1-3)GalNAc", "method_in_brief": "as §1"}, "[4]": {"target": "GalNAc(a1-3)GalNAc(a1-3)Gal(a1-4)Gal(b1-4)GlcNAc", "method_in_brief": "as §1"}, "[5]": {"target": "GalNAc(a1-3)GalNAc(b1-3)Gal(a1-4)Gal(b1-4)Glc", "method_in_brief": "as §1"}, "GalNAc(b1-3)Gal": {"target": "GalNAc(b1-3)Gal", "method_in_brief": "as §1"}, "[6]": {"target": "GalNAc(b1-3)Gal(a1-4)Gal(b1-4)GlcNAc", "method_in_brief": "as §1"}, "[7]": {"target": "GalNAc(b1-3)Gal(a1-4)Gal(b1-4)GlcNAc(b1-3)Gal(b1-4)Glc", "method_in_brief": "as §1"}, "[8]": {"target": "GalNAc(b1-3)Gal(a1-6)Gal(b1-4)Glc", "method_in_brief": "as §1"}, "GalNAc(b1-3)GalNAc": {"target": "GalNAc(b1-3)GalNAc", "method_in_brief": "as §1"}, "GalNAc(b1-3)GlcNAc": {"target": "GalNAc(b1-3)GlcNAc", "method_in_brief": "as §1"}, "GalNAc(b1-4)Gal(b1-4)Glc": {"target": "GalNAc(b1-4)Gal(b1-4)Glc", "method_in_brief": "as §1"}, "GalNAc(b1-4)GlcNAc": {"target": "GalNAc(b1-4)GlcNAc", "method_in_brief": "as §1"}, "[9]": {"target": "GalNAc(b1-4)GlcNAc(b1-2)Man", "method_in_brief": "as §1"}, "[10]": {"target": "GalNAc(b1-4)GlcNAc(b1-2)Man(a1-3)[GalNAc(b1-4)GlcNAc(b1-2)Man(a1-6)]Man(b1-4)GlcNAc(b1-4)GlcNAc", "method_in_brief": "as §1"}, "[11]": {"target": "GalNAc(b1-4)GlcNAc(b1-3)GalNAc(b1-4)GlcNAc", "method_in_brief": "as §1"}, "GalNAc(b1-4)GlcNAc6S": {"target": "GalNAc(b1-4)GlcNAc6S", "method_in_brief": "as §1"}, "GalNAc(b1-6)GalNAc": {"target": "GalNAc(b1-6)GalNAc", "method_in_brief": "as §1"}, "GalNAc3S(b1-4)GlcNAc": {"target": "GalNAc3S(b1-4)GlcNAc", "method_in_brief": "as §1"}, "GalNAc3S(b1-4)GlcNAc3S": {"target": "GalNAc3S(b1-4)GlcNAc3S", "method_in_brief": "as §1"}, "[12]": {"target": "GalNAc3S(b1-4)[Fuc(a1-3)]GlcNAc", "method_in_brief": "as §1"}, "GalNAc4S6S(b1-4)GlcNAc": {"target": "GalNAc4S6S(b1-4)GlcNAc", "method_in_brief": "as §1"}, "GalNAc6S(b1-4)GlcNAc": {"target": "GalNAc6S(b1-4)GlcNAc", "method_in_brief": "as §1"}, "Glc(a1-4)Glc": {"target": "Glc(a1-4)Glc", "method_in_brief": "as §1"}, "[13]": {"target": "Glc(a1-4)Glc(a1-4)Glc(a1-4)Glc", "method_in_brief": "as §1"}, "Glc(a1-6)Glc(a1-6)Glc": {"target": "Glc(a1-6)Glc(a1-6)Glc", "method_in_brief": "as §1"}, "[14]": {"target": "Glc(a1-6)Glc(a1-6)Glc(a1-6)Glc", "method_in_brief": "as §1"}, "Glc(b1-4)Glc": {"target": "Glc(b1-4)Glc", "method_in_brief": "as §1"}, "Glc(b1-6)Glc": {"target": "Glc(b1-6)Glc", "method_in_brief": "as §1"}},
  "note": "Some of the results follow.",
  "data": [
    {"binder": "B1", "values": [
      {"measurement": "glycan array binding signal (z-score)", "setting": "Gal3S(b1-4)Glc6S", "value": -0.14},
      {"measurement": "glycan array binding signal (z-score)", "setting": "Gal3S(b1-4)GlcNAc", "value": -0.144},
      {"measurement": "glycan array binding signal (z-score)", "setting": "[1]", "value": -0.13},
      {"measurement": "glycan array binding signal (z-score)", "setting": "[2]", "value": -0.145},
      {"measurement": "glycan array binding signal (z-score)", "setting": "[3]", "value": -0.145},
      {"measurement": "glycan array binding signal (z-score)", "setting": "Gal3S4S(b1-4)GlcNAc", "value": -0.138},
      {"measurement": "glycan array binding signal (z-score)", "setting": "Gal3S6S(b1-4)GlcNAc", "value": -0.146},
      {"measurement": "glycan array binding signal (z-score)", "setting": "Gal3S6S(b1-4)GlcNAc6S", "value": -0.144},
      {"measurement": "glycan array binding signal (z-score)", "setting": "Gal4S(b1-4)GlcNAc", "value": -0.147},
      {"measurement": "glycan array binding signal (z-score)", "setting": "Gal4S6S(b1-4)GlcNAc", "value": -0.143},
      {"measurement": "glycan array binding signal (z-score)", "setting": "Gal6P(b1-4)GlcNAc", "value": -0.149},
      {"measurement": "glycan array binding signal (z-score)", "setting": "Gal6S(b1-3)GlcNAc", "value": -0.149},
      {"measurement": "glycan array binding signal (z-score)", "setting": "Gal6S(b1-3)GlcNAc6S", "value": -0.144},
      {"measurement": "glycan array binding signal (z-score)", "setting": "Gal6S(b1-4)Glc", "value": -0.145},
      {"measurement": "glycan array binding signal (z-score)", "setting": "Gal6S(b1-4)Glc6S", "value": -0.144},
      {"measurement": "glycan array binding signal (z-score)", "setting": "Gal6S(b1-4)GlcNAc", "value": -0.148},
      {"measurement": "glycan array binding signal (z-score)", "setting": "Gal6S(b1-4)GlcNAc6S", "value": -0.137},
      {"measurement": "glycan array binding signal (z-score)", "setting": "GalNAc(a1-3)Gal", "value": -0.06},
      {"measurement": "glycan array binding signal (z-score)", "setting": "GalNAc(a1-3)GalNAc", "value": -0.144},
      {"measurement": "glycan array binding signal (z-score)", "setting": "[4]", "value": -0.148},
      {"measurement": "glycan array binding signal (z-score)", "setting": "[5]", "value": -0.15},
      {"measurement": "glycan array binding signal (z-score)", "setting": "GalNAc(b1-3)Gal", "value": 0.01},
      {"measurement": "glycan array binding signal (z-score)", "setting": "[6]", "value": -0.036},
      {"measurement": "glycan array binding signal (z-score)", "setting": "[7]", "value": -0.128},
      {"measurement": "glycan array binding signal (z-score)", "setting": "[8]", "value": 0.053},
      {"measurement": "glycan array binding signal (z-score)", "setting": "GalNAc(b1-3)GalNAc", "value": -0.143},
      {"measurement": "glycan array binding signal (z-score)", "setting": "GalNAc(b1-3)GlcNAc", "value": -0.144},
      {"measurement": "glycan array binding signal (z-score)", "setting": "GalNAc(b1-4)Gal(b1-4)Glc", "value": -0.135},
      {"measurement": "glycan array binding signal (z-score)", "setting": "GalNAc(b1-4)GlcNAc", "value": -0.149},
      {"measurement": "glycan array binding signal (z-score)", "setting": "[9]", "value": -0.145},
      {"measurement": "glycan array binding signal (z-score)", "setting": "[10]", "value": -0.138},
      {"measurement": "glycan array binding signal (z-score)", "setting": "[11]", "value": -0.15},
      {"measurement": "glycan array binding signal (z-score)", "setting": "GalNAc(b1-4)GlcNAc6S", "value": -0.149},
      {"measurement": "glycan array binding signal (z-score)", "setting": "GalNAc(b1-6)GalNAc", "value": -0.146},
      {"measurement": "glycan array binding signal (z-score)", "setting": "GalNAc3S(b1-4)GlcNAc", "value": -0.143},
      {"measurement": "glycan array binding signal (z-score)", "setting": "GalNAc3S(b1-4)GlcNAc3S", "value": -0.147},
      {"measurement": "glycan array binding signal (z-score)", "setting": "[12]", "value": -0.146},
      {"measurement": "glycan array binding signal (z-score)", "setting": "GalNAc4S6S(b1-4)GlcNAc", "value": -0.14},
      {"measurement": "glycan array binding signal (z-score)", "setting": "GalNAc6S(b1-4)GlcNAc", "value": -0.149},
      {"measurement": "glycan array binding signal (z-score)", "setting": "Glc(a1-4)Glc", "value": -0.142},
      {"measurement": "glycan array binding signal (z-score)", "setting": "[13]", "value": -0.141},
      {"measurement": "glycan array binding signal (z-score)", "setting": "Glc(a1-6)Glc(a1-6)Glc", "value": -0.146},
      {"measurement": "glycan array binding signal (z-score)", "setting": "[14]", "value": -0.135},
      {"measurement": "glycan array binding signal (z-score)", "setting": "Glc(b1-4)Glc", "value": -0.145},
      {"measurement": "glycan array binding signal (z-score)", "setting": "Glc(b1-6)Glc", "value": -0.141}
    ]}
  ]
}
